Data: a collection of fitness landscapes (doi:10.1016/j.celrep.2020.107928)
Over roughly 81,000 sequences, “one-hybrid fitness for binding NBS DNA” has its median near -0.1; the highest 2% begin near 0.36. The list shows a part of the results.

B1: Caulobacter ParB omega fusion; a variant is named by its letters at X, in order, B8GW30 (parent)
chain: MESVVVGEPGMSEGRRGLGRGLSALLGEVDAAPAQAPGEQLGGSREAPIEILQRNPDQPRRTFREEDLEDLSNSIREKGVLQPILVRPSPDTAGEYQIVAGERAWRAAQRAGLKTVPIMVRELDDLAVLEIGIIENVQRADLNVLEEALSYKVLMEKFERTQENIAQTIGKSXSHVANXMRLLXLPDEVQSYLVSGELTAXHARAIAAAADPVALAKQIIEGGLSVRETEALARKAPNLSAGKSKGGRPPRVKDTDTQALESDLSSVLGLDVSIDHRGSTGTLTITYATLEQLDDLCNRLTRGI

Variants of: B1
Test: one-hybrid fitness for binding NBS DNA (the Noc-binding site; scaled: cognate 1, non-cognate 0); higher = stronger binding
Conditions: with NBS DNA site
How it was run: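 In E. coli USO, a HIS3 reporter with its site placed 19 bp from the promoter was used to select Caulobacter ParB variants randomised at four specificity codons. Growth lasted 48 hours at 37°C on histidine-free M9 containing 0.1 mM IPTG and 5 mM 3-AT. Fitness was taken as the log change in variant-to-wild-type read ratio from Illumina sequencing of pre- and post-selection plasmids, rescaled between the non-cognate and cognate sites.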

one-hybrid fitness for binding NBS DNA, ≤ 0.2:
PNMK
WRHL
SLFV
YSAT
PKNY
CLSC
HSEC
GTSM
VMCS
GRRK
TALE
TPRI
FDSL
ITEG
HNRG
HRMM
RAFQ
GSPS
PCNG
SRRS
WFLP
PFSS
SLGG
RIAK
HRNA
ARRP
NKYC
WTQC
TPRS
TPQR
GYVR
QEKA
LKRS
RVFG
LATT
RPCS
RNCQ
HGMN
GCPR
TNES
SPTN
VVMR
YAQA
TYNQ
VYRL
QNTW
KVWG
MHLM
KNIR
HLAS
IIHM
STEV
FTIG
QLQM
CTYT
WHPE
IDWR
RKCN
NACR
HSCL
IMSS
LDKY
DGKC
KWLC
FWQG
KLQV
GRHY
CDMC
KGIV
LWIG
STGI
GIHR
ISDW
TKMW
NPTS
YQQS
WWRT
KSPN
RKCK
NSRT
HGGT
RLIE
SESS
RIPV
SSVN
KHTA
TDNG
SDYC
GTAA
PTTV
PPGE
NVPW
SMCF
ISLN
NWKT
LTIS
WTRS
SDTY
TRWC
AIEC
YYCC
FYDV
ACVN
YDCG
IRYT
AEHT
IRCC
KYWL
DFHG
HVWT
RNFG
AGHS
KPTY
NPQV
WAHC
LSYS
DYVG
AFKG
SFTG
ENPL
HVLW
SMTT
FRLY
YIYC
ALWR
QHDM
AVMR
HKSD
TPLK
STPA
GPKC
KRND
RPPM
MPQC
YHSP
QFYT
PSTV
DGNS
DCGS
SVKV
APPK
STKD
FVES
DGGD
DKKW
NFRR
GYKC
FHTY
HALY
KTEC
PTVQ
VASC
KRMP
MERN
LSDM
YMAT
RDTQ
FCCG
VKME
CTFA
NGDV
RYQC
FTML
NESY
ITWV
SWKQ
QSNI
VHTW
RGGA
FKIV
QLAQ
YQFS
RTIW
YRTS
CDHT
QDRD
VDEA
HQYR
FFPS
ESHA
VPPR
QNWW
RIIL
CTYA
PSMC
KGRA
TWTT

one-hybrid fitness for binding NBS DNA, 0.237:
RCTH

one-hybrid fitness for binding NBS DNA, 0.264:
KRES

one-hybrid fitness for binding NBS DNA, 0.302:
RVLT

one-hybrid fitness for binding NBS DNA, 0.358:
KMAF

one-hybrid fitness for binding NBS DNA, 0.436:
RVCR

one-hybrid fitness for binding NBS DNA, 0.377:
QVNS

one-hybrid fitness for binding NBS DNA, 0.335:
QQKE

one-hybrid fitness for binding NBS DNA, 0.507:
QRKC
